According to paper PMC4336329 (PLoS ONE, 2015):
The whole screen tested about 310,000 compounds, of which about 2,200 (0.71%) showed an effect of 50% or more. Effects have a minus sign here. This is one part of the list.

molecular target: human ether-à-go-go-related gene (hERG) potassium channel (human, UniProt Q12809); assay: primary screen, population patch clamp on CHO cells stably expressing hERG
Sequence (Q12809 whole entry, looked up): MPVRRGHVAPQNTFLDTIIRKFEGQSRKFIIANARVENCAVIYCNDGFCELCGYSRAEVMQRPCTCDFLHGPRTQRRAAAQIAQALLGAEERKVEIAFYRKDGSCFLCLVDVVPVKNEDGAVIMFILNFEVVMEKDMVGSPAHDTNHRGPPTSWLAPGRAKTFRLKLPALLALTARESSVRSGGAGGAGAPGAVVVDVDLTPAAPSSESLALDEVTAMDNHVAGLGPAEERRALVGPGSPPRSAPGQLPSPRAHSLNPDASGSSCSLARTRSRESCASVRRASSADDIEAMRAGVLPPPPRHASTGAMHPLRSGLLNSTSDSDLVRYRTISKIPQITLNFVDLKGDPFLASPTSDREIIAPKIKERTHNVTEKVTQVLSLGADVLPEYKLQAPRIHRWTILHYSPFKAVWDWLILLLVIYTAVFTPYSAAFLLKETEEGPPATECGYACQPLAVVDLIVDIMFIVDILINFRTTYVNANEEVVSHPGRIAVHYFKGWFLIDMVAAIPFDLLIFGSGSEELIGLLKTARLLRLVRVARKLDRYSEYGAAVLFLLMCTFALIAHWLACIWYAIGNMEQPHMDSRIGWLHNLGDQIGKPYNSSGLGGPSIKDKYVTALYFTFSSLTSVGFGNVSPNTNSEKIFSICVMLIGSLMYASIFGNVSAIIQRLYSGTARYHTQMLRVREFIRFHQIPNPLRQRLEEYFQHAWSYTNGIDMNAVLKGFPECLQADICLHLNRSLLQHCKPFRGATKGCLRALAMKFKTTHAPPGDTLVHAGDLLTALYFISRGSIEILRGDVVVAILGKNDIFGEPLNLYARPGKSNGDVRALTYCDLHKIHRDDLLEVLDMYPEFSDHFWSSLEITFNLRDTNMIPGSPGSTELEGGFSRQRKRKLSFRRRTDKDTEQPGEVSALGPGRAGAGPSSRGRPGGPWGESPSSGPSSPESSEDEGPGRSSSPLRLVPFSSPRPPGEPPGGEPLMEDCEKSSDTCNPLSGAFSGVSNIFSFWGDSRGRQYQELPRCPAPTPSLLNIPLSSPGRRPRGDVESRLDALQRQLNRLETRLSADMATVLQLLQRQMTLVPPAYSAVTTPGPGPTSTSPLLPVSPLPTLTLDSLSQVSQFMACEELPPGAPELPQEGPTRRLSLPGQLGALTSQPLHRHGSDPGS

SMILES | hERG current change (%, negative = inhibition) at 1uM [%]
CCC(=O)Nc1cccc(C2=NOC3(C2)C[C@@H](C(N)=O)N(C(=O)c2cc([N+](=O)[O-])cc([N+](=O)[O-])c2C)C3)c1 (stereo partly drawn) | 8.81
CCCCN(Cc1ccccc1)C1CCN(Cc2ccccc2)CC1 | -14.5
COc1ccc(/C=C(/NC(=O)c2ccc([N+](=O)[O-])cc2)C(=O)NC(C)(C)C)cc1 | -10.7
CCOC(=O)C1=C(O)C(=O)NC(c2ccccc2)=C(OC2CCCCC2)C1 | 7.57
CN(C)CCNC(=S)Nc1ccccc1Cl | 4.45
CCNc1sc(S(C)(=O)=O)nc1S(=O)(=O)c1ccc(Cl)cc1 | 18.1
Cc1ccc(CNC(=O)C2(S(=O)(=O)c3ccc(C)cc3)CC2)cc1 | 5.08
COc1ccc(Cl)cc1C(=O)NNC(=O)c1cccc(S(=O)(=O)N(C)C)c1 | 5.46
O=C(NCCc1cccc(F)c1)C1CCCN(c2nc3ccccc3s2)C1 (stereo not drawn) | 10.7
Cc1c(C(=O)N2CCN(c3ccc(C(F)(F)F)cn3)CC2)oc2ccccc12 | 5.58
CC(NC(=O)COC(=O)C1CSC2(C)CCC(=O)N12)C12CC3CC(CC(C3)C1)C2 (stereo not drawn) | 9.61
COc1cc(/C=N\Nc2nc3ccccc3[nH]2)cc(OC)c1OC | -5.36
COc1nn(CC(=O)N2N=C(C)CC2(O)C(F)F)cc1[N+](=O)[O-] (stereo not drawn) | 4.52
COc1ccc(-c2cc(C(F)(F)F)n3nc(C(=O)NCc4ccco4)cc3n2)cc1OC | 15.1
C/C(=N\N(C)c1ccccc1)c1c(O)[nH]c(=O)[nH]c1=O | 11.9
CCOc1cc(S(=O)(=O)NCC2OCCc3ccccc32)c(OCC)cc1-n1cnnn1 (stereo not drawn) | 4.59
CC1CN(Cc2ccccn2)CCC1=O.Cl (stereo not drawn) | 3.93
O=[N+]([O-])c1ccc2nonc2c1Nc1ccccc1 | 17.4
Cn1nc(C(C)(C)C)cc1C(=O)Nc1nc2c(s1)C(=O)CC(C)(C)C2 | -12.5
COC(=O)c1[nH]c2cccc(OC)c2c1NC(=O)C(C)N1CCC(C)CC1 (stereo not drawn) | -10.1
COC(=O)C1=C(C(=O)OC)C(c2cc([N+](=O)[O-])ccc2O)c2sc(=O)[nH]c2S1 (stereo not drawn) | 6.96

SMILES | hERG current change (%, negative = inhibition) at 1uM [%]
Cc1cc(Br)ccc1-n1[nH]c(C)c(C=Nc2cccc3nsnc23)c1=O | 15.7
CCN(CC)CCOCCOc1ccccc1F | 6.56
Cn1c(CCN2CCCCC2)nc2cc(NS(=O)(=O)c3ccc(F)cc3)ccc21 | -57.5
COc1cccc(NC(=O)COC(=O)c2cccnc2)c1 | 3.46
CC(=O)c1sc2nc(-c3ccc(C)cc3)c3c(c2c1N)CCCC3 | 7.59
COc1ccc(-n2nc(C(=O)Nc3nc4ccc(OC)cc4s3)c3ccccc3c2=O)cc1 | 17.4
COc1cccc(NC(=O)CSc2nc3ccccc3c(=O)n2Cc2cccs2)c1 | 8.49
O=C1NC(=NCc2ccccc2)S/C1=C\c1ccccc1 | 25.6
CCN(CC)S(=O)(=O)c1ccc(C(=O)NNc2nc(-c3ccccc3)c3cc(Br)ccc3n2)cc1 | 16.3
COCCCNC(=O)c1ccc(N(C)S(=O)(=O)c2ccc(OC)cc2)cc1 | -13.5
O=C([C@@H]1CC=C[C@@H]2CCN(C3CC3)C(=O)[C@@H]21)N1CCN(c2ccccc2)CC1 | 11.3
COc1ccc(/C=N/NS(=O)(=O)c2ccc(F)cc2)cc1COc1cc(F)ccc1[N+](=O)[O-] | -19
CCc1nnc(NC(=O)CSc2nnc(C(C)NC(=O)c3ccccc3)n2C)s1 (stereo not drawn) | 21
Cl.O=C(Cc1ccccn1)Nc1ccccc1 | 12.1
O=S(=O)(Nc1ncccn1)c1ccc(-n2cnnn2)cc1 | 10.6
CC(C)N(Cc1ccccc1)C(=O)CCc1ccccc1 | 10.5
O=C([O-])c1ccc(-[n+]2c(-c3ccccc3)cc(-c3ccccc3)cc2-c2ccccc2)cc1 | 12.9
Cc1ccnc(N/C=C(/NC(=O)c2ccccc2)C(=O)N/N=C\c2ccc(Cl)cc2)n1 | 3.84
CCCCC1=CC2=CC(=O)C(C)(OC(=O)CC)C(=O)C2=CN1CCCCO (stereo not drawn) | 12.9
CCCCC(=O)Nc1cccc(-c2cn3ccsc3n2)c1 | 2.71
CCN(CCn1cccn1)C(=O)c1cccc(OC2CCN(S(C)(=O)=O)CC2)c1 | 7.43
